B1: OR4K15 (parent)
chain: GUUAACGGUCAUAGGCCAUGGAAACUAGGAGCACCAUUUCGCUGCCAGUGAAGAAAUGAACAAAGAAAAUCUGGGCCAGGCAGGCAUCAAAAGAAAUAGUCUUGCGCUCAACCAGAAAGUCUGUAAUCAUUUUAAGGGUA

Read counts are not given, so values of variants with three or more changes are uncertain.

Variants of B1 are the subject of the data set. The data set can be described thus: self-cleavage, relative activity (ratio to wild type); higher = more cleavage; in vitro, sequencing; the parent is a self-cleaving ribozyme.
On to A23G A55U A60U, for which the self-cleavage was 0.87.
Turning to A23G A55G A111G A135U, the self-cleavage was found to be 0.03.
The value for A23G A55U U120C was 0.67.
The value for A23G A96G A126G was 0.79; that for A23G A67U G75A was 0.04; that for A23G A52G A68G U108C was 0.07.
The figure for A23G A63G G80A A90G is 0.19; for A23G A68U A95G C105G A116U U130C it is 0.02; for A23G A62G A96G G106A it is 0.03.
For A23G A54U A55G U120C U139C, the self-cleavage was found to be 0.4.
The figure for A23G C42U A47G A59G C76U is 0.2.
The figure for A23G A27U A51G U127C A129U is 0.83; for A23G G41A A69G A98G U120A it is 0.57.
Regarding A23G A68G A90G, the self-cleavage is 0.94.
The value for A23G G106A U120C was 0; that for A23G A27G A98U U132C was 1.57; that for A23C A116G A118G was 0.93.
Consider A23G C85U A117G, for which the self-cleavage was found to be 1.02.
The value for A23G G74C A129G was 0.13; that for A23G A54G A78G U130C was 0.12.
The value for A23C A96U U130C was 1.01.
The figure for A23G A68C U72A U100C is 0.51; for A23G A92U U100C it is 1; for A23C A51G U102C U124G it is 1.62.
On to A23C U26A A68G U72G A92G, for which the self-cleavage is 0.27.
The figure for A23G A59U A114U A126G is 0.02.
A23G A54G A69G A91G U100A G106A: the self-cleavage turned out to be 0.05.
As for A23G A55U A111G, the self-cleavage turned out to be 0.08.
The value for A23G A66G A116U A129G was 0.21; that for A23G A56G A114U was 0.04.
The value for A23G A96G U124G was 0.41; that for A23G A47G C112U was 0.04; that for A23G A30U A33G U38C G93A was 1.32.
The figure for A23C A78U A91G is 0.17.
As for A23G A68G A135U U139C, the self-cleavage was 0.88.
The value for A23G G58U A140G was 1.38.
The value for A23G C81U U87C U100C was 0.62.
The figure for A23G A89G U108A is 0.01.
With A23G C32U U70A, the self-cleavage is 1.24.
The figure for A23G A24G U131C A135G U139C is 0.57; for A23G A63G A68C A82U U131C it is 0.28; for A23G A63G U100C U132A it is 1.87.
The value for A23G A56G A96G was 0.87.
The value for A23G A63G A68G U122A was 1.02; that for A23G A54G A56G was 1.42; that for A23G C34A A56G U102G was 0.8.
A23G A24G U43C A55G A86G G104U A129G: the self-cleavage was 0.03.
Regarding A23G A60G A118U, the self-cleavage came to 0.8.
The value for A23G A60G G74A was 0.17.
The value for A23G G99A U102C was 0.79.
With A23G A68G U70C, the self-cleavage was 0.65.
With A23G A60U U100C, the self-cleavage was 1.92.
Take A23G A54G A59G A69U A111G U122C: the self-cleavage was determined as 0.05.
The figure for A23G A30C U49C is 0.3; for A23G A55U A67C A92G it is 1.42.
The figure for A23G A111U U132C is 0.08.
A23G A47G U102C A116G: the self-cleavage was determined as 1.15.
The figure for A23G A94G U108A A135G is 0.05; for A23G A51U U72A U108C A126G it is 0.01.
The value for A23G A24G U124C A134G was 0.74; that for A23G A92G A110G A117G U132C was 0.13.
The figure for A23G A89G A94G is 1.41; for A23G A98G A118C U122A it is 0.06; for A23G A68G U87C A117G A118G it is 0.33.
As to A23G G48A A51G A63G A117G U120A A140G, the self-cleavage was determined as 0.23.
Regarding A23G A96G G136A, the self-cleavage worked out at 1.42.
The value for A23G A62G A94U A111G A116G was 0.15; that for A23G A59U A69G C105G was 0.01; that for A23G G28A A68G A96G was 1.33.
Regarding A23G A36G G48A A68G A86G, the self-cleavage worked out at 0.87.
A23G C42U A82U U108C U122G: the self-cleavage is 0.01.
The figure for A23G A30G C61U is 0.61; for A23C A54G A55G it is 1.
The figure for A23G A90G A126G is 0.85.
The value for A23G A60G A67G C105U A111C was 0.02; that for A23G A62G U131C was 0.49.
In the case of A23G A47U A126G G136A, the self-cleavage was 0.94.
The figure for A23G U26C A59G is 1.23.
As for A23G A60G A82G U108C U130C, the self-cleavage turned out to be 0.01.
The value for A23G A69G A89G A118G U122C was 0.11; that for A23G G31A A51G A82G U130C was 0.57; that for A23G A82U A92G A111G was 0.05.
The figure for A23G A52G A95G A114G G137A is 1.02.
